Test results: PubChem BioAssay AID686979 (National Center for Advancing Translational Sciences (NCATS), 2013)
Several values for one entry are separate records, joined by “and”; a condition that tells them apart may be missing. Identical values can stand only once. The campaign covered roughly 420,000 compounds. About 50,000 (12%) were called active. The inconclusive results got no clear call from the source; some entries with a clear call stand among them for comparison. The call rests on the fitted dose curve; in most records, active means well fitted inhibition curve with a large enough effect; inconclusive means small, poorly fitted or top-dose-only effect; inactive means flat fitted curve, though single readings scatter. A potency beside an inconclusive call is a rough fit, not a confirmed value. Where a SMILES comes first, the peptide text is derived from it. The star is where a group is joined. CH2Cl = ClC*

assay: qHTS for Inhibitors of human tyrosyl-DNA phosphodiesterase 1 (TDP1): qHTS in cells in presence of CPT; conditions: chicken DT40 Tdp1-/-;hTDP1 cells + 20 nM CPT, ATP luminescence, 48 h; activity change, negative = growth inhibition: at 46.2 µM (top of the series) unless noted; further: nearly all actives have a fitted effect of over 55% in size
Method in brief: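 Chicken DT40 Tdp1-/- cells stably complemented with human TDP1 were seeded at 400 cells/well in medium containing 20 nM camptothecin, exposed to pin-transferred compounds, and grown at 37 °C for at least 48 hr. Viability was read as ATP luminescence.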
On the % scale 0 is the no-effect control and ±100 the full control effect; potency means the concentration at half of the fitted maximal effect; tags describe the fitted curve by direction and shape.

| Compound | Potency | activity change, negative = growth inhibition |
| --- | --- | --- |
| C[C@H](N)C(=O)N[C@@H](C)C(=O)N[C@@H](Cc1ccccc1)C(=O)CCl (H-Ala-Ala-Phe-CH2Cl) | inconclusive: 29.2 µM [inhibitor, single point] | – |
| C[C@]12CC[C@H](O)C[C@H]1CC[C@@H]1[C@@H]2CC[C@]2(C)[C@@H](c3ccc(=O)oc3)C[C@H]3O[C@]132 | inconclusive: 29.9 µM [inhibitor, single point] | – |
| C[C@]12CC[C@H]3[C@@H](CCC4=CC(=O)CC[C@@]43C)[C@@H]1CC[C@@H]2C(=O)CO | inactive and inconclusive: 20.6 µM [inhibitor, single point] | – |
| CN(C)C(Cc1ccccc1)C(=O)c1c[nH]c2ccccc12 (stereo not given) | inconclusive: 29.1 µM [inhibitor, single point] | – |
| C[C@]12CC[C@H](O)CC1=CCC1C2CC[C@]2(C)C(=O)[C@H](Br)CC12 (stereo not given in full) | inconclusive: 25.9 µM [inhibitor, single point] | – |
| Cc1cc(OC(=O)CCNC(=O)OC(C)(C)C)c2c3c(c(=O)oc2c1)CCC3 | inconclusive: 14.6 µM [inhibitor, partial curve, poor fit] | – |
| COC(=O)C1=C(c2cccc(OC)c2OC)C[C@@H]2CC[C@H]1N2C(=O)NCc1cccc2ccccc12 | inconclusive: 29.1 µM [inhibitor, single point] | – |
| O=C1N=C2SCCN2C(=O)C1Cc1ccc(Cl)cc1 (stereo not given) | inconclusive: 29.9 µM [inhibitor, single point] | – |
| Cc1cc(C(=O)OCC(=O)Nc2ccc(F)cc2F)c(C)n1C1CC1 | inconclusive: 29.1 µM [inhibitor, single point] | – |
| C=C1C=C(C(F)F)n2ncc(C(=O)NCc3ccccc3F)c2N1 | inconclusive: 35.5 µM [inhibitor, single point] | – |
| COc1ccc(C(c2nnnn2-c2ccc(OC)cc2)N2CCC(n3c(=O)[nH]c4ccccc43)CC2)cc1 (stereo not given) | active: 18.4 µM | – |
| Cn1cc(C(O)CN2CCCCC2)c2ccccc21 (stereo not given) | inactive | – |
| COC(=O)C1=C(c2cccc(NC(C)=O)c2)C[C@@H]2CC[C@H]1N2C | inactive | – |
| O=C(CCCN1CCC2(CC1)C(=O)NCN2c1ccccc1)c1ccc(F)cc1 | inconclusive: 1.5 µM [inhibitor, partial curve] | – |
| COc1ccc(-n2c(/C=C3\C(=O)Nc4ccccc43)nc3ccccc3c2=O)cc1 | inconclusive: 16.4 µM [inhibitor, single point] | – |
| CC(=NCCC(c1ccccc1)c1ccccc1)c1c(O)n(C)c(=O)n(C)c1=O | active: 20.6 µM | – |
| CC(C)C[C@H]1C(=O)N2CCC[C@H]2[C@]2(O)O[C@](NC(=O)[C@@H]3C=C4c5cccc6[nH]cc(c56)C[C@H]4N(C)C3)(C(C)C)C(=O)N12 | active: 20.6 µM | – |
| C[C@@H]1CN([C@@H](C)CO)C(=O)CCCn2nncc2CO[C@@H]1CN(C)C(=O)Oc1ccc2ccccc2c1 | inactive | – |
| CN(C)C1(CNC(=O)Cc2ccccc2F)CCCCC1 | inactive | – |
| CC(=O)Nc1cnc(-c2ccccc2O)cn1 | inconclusive: 8.2 µM [inhibitor, partial curve] | – |
| CC(CCC(=O)O)C1CCC2C3C(=O)CC4CC(=O)CC[C@@]4(C)C3CC(=O)[C@]12C (stereo not given in full) | inactive | – |
| Cc1cccc(C)c1-n1nnnc1C(c1cccs1)N1CCC2(CC1)C(=O)NCN2c1ccccc1 (stereo not given) | active: 14.6 µM | – |

| Compound | Potency | activity change, negative = growth inhibition |
| --- | --- | --- |
| C=CCN1CCC23c4c5ccc(O)c4OC2/C(=N/N=C2\CCC4(O)C6Cc7ccc(O)c8c7C4(CCN6CC=C)C2O8)CCC3(O)C1C5 (stereo not given) | inconclusive: 18.4 µM [inhibitor, single point] | – |
| Cc1c(C(=O)Nc2ccccc2Cl)oc2ccc(S(=O)(=O)N3CCCCC3)cc12 | active: 20.6 µM | – |
| CC1CCN(C(=O)Cn2c3ccccc3c3nc4n(c(=O)c32)CCCS4)CC1 | active: 23.1 µM | – |
| CC(=NC(C)c1ccccc1)c1c(O)[nH]c(=O)[nH]c1=O (stereo not given) | inconclusive: 14.6 µM [inhibitor, partial curve, poor fit] | – |
| Cc1ccc([C@H]2C[C@H](O)[C@@H](n3cc(COC(=O)c4ccccc4)nn3)CN2C(=O)C2CCCCC2)cc1 | inconclusive: 29.1 µM [inhibitor, single point] | – |
| O=C(c1cc(-c2ccccc2)nc2ccccc12)N1CCC2(CC1)OCCO2 | inconclusive: 29.1 µM [inhibitor, single point] | – |
| CN1CCN(Cc2ccccc2C(F)(F)F)CC1 | inactive | – |
| COC[C@H]1OC(=O)c2coc3c2[C@@]1(C)C1=C(C3=O)C2CCC(=O)[C@@]2(C)C[C@H]1OC(C)=O (stereo not given in full) | active: 8.91 µM and active: 5.8 µM and active: 1 µM | – |
| O=C1/C(=C/c2ccc([N+](=O)[O-])cc2)N2CCC1CC2 | inconclusive: 29.1 µM [inhibitor, single point] | – |
| c1ccc(-n2ccnc2)cc1 | inactive | – |
| O=C(Nc1ccccc1Cl)OC1CN2CCC1CC2 (stereo not given) | inactive | – |
| CCC(=NCc1cccnc1)c1c(O)n(C2CCCCC2)c(=O)[nH]c1=O | inconclusive: 23.1 µM [inhibitor, partial curve] | – |
| c1ccc2c(c1)[IH]c1ccccc1-2 | active: 0.0517 µM | – |
| Nc1ccc(Cl)cc1N | inconclusive: 34.4 µM [inhibitor, single point] | – |
| O=c1[nH]c2ccccc2n1C1CCN(C(CCc2ccccc2)c2nnnn2-c2ccc3c(c2)OCCO3)CC1 (stereo not given) | active: 3.66 µM | – |
| CCOc1cc2c(cc1OCC)-n1cccc1C(c1ccc(OC)c(O)c1)NC2 (stereo not given) | inconclusive: 29.1 µM [inhibitor, single point] | – |
| CN(C(=O)Cc1ccc(Cl)c(Cl)c1)[C@H](CN1CCCC1)c1cccc(N=C=S)c1 | active: 11.9 µM | – |
| CC1=Nc2ccccc2/C1=C/c1c(O)[nH]c(=O)[nH]c1=O | inactive | – |
| CC(=O)OC1CCC2(C)C(CC(=O)C3C2CCC2(C)C(OC(C)=O)CCC32)C1 (stereo not given) | inconclusive: 29.1 µM [inhibitor, single point] | – |
| Cc1c(C)n(O)c2ccc3nonc3c12 | inconclusive: 20.6 µM [inhibitor, partial curve] | – |
| N#Cc1c(N2CCNCC2)nc(-c2ccco2)c2c1CCCC2 | inconclusive: 20.6 µM [inhibitor, single point] | – |
| CCn1c(CNC(=O)c2ccc3c(c2)OCO3)nnc1SCC(=O)Nc1cc(C)ccc1OC | inconclusive: 29.1 µM [inhibitor, single point] | – |

| Compound | Potency | activity change, negative = growth inhibition |
| --- | --- | --- |
| c1cc2c(c(NC3=NCCCS3)c1)CCCC2 | inactive | – |
| O=[N+]([O-])c1cccc(CN2CC=C(c3ccc(F)cc3)CC2)c1 | inconclusive: 20.6 µM [inhibitor, partial curve] | – |
| COC(=O)C1=C(c2ccc(F)cc2OCc2ccccc2)C[C@@H]2CC[C@H]1N2C(=O)NCc1ccco1 | inconclusive: 20.6 µM [inhibitor, single point] | – |
| COc1ccccc1N(CC(=O)NC1CCCCC1)C(=O)c1cnn(C(C)C)c1 | – | inconclusive: -31.7% [inhibitor] |
| O=C(Nc1cccnc1)c1c(O)c2c(n(Cc3ccccc3)c1=O)CCCC2 | inconclusive: 29.1 µM [inhibitor, single point] | – |
| CC(C)(C)OC(=O)N1CCC(c2c(C(=O)N3CCN(Cc4ccccc4)CC3)cnn2-c2ccc(Cl)cc2)CC1 | active: 25.9 µM | – |
| C=CC[C@@H](C)CC(=O)C(CCCN=[N+]=[N-])SOOc1ccccc1 (stereo not given in full) | inconclusive: 29.1 µM [inhibitor, single point] | – |
| C=C1CC[C@@]2(O)[C@H]3Cc4ccc(O)c5c4[C@@]2(CCN3CC2CC2)[C@H]1O5 | inactive | – |
| Cc1nc2ccccc2c(=O)n1-c1ccc(Br)cc1[N+](=O)[O-] | inconclusive: 20.6 µM [inhibitor, single point] | – |
| C=CCN1CC[C@]23c4c5ccc(O)c4OC2C(O)C=CC3[C@H]1C5 (stereo not given in full) | inactive | – |
| CCS(=O)(=O)N1Cc2ccccc2CC1C(=O)NCC12CC3CC(CC(C3)C1)C2 (stereo not given) | inconclusive: 23.1 µM [inhibitor, partial curve] | – |
| CCOC(=O)[C@]1(C#N)[C@@H]2C=CC(C(C)=O)=CN2[C@@H](C(N)=O)[C@@H]1c1ccsc1 | inconclusive: 29.1 µM [inhibitor, single point] | – |
| CCCNC(=O)N1[C@H]2CC[C@@H]1C(C(=O)OC)=C(c1cccc(C#N)c1)C2 | inactive | – |
| CC(C(=O)c1c[nH]c2ccccc12)N1CCOCC1 (stereo not given) | inactive | – |
| CC1=C(N2CC2)C(=O)C(CO)=C(N2CC2)C1=O | active: 0.0259 µM | – |
| CC[C@H](C)C(=O)O[C@H]1C[C@H](O)C=C2C=C[C@H](C)[C@H](CC[C@@H](O)C[C@@H](O)CC(=O)O)[C@H]21 | inconclusive: 33.5 µM [inhibitor, single point] | – |
| COC(=O)C1=C(c2ccc(Cl)c(C(F)(F)F)c2)C[C@@H]2CC[C@H]1N2C(=O)N1CCC(O)(c2ccc(Cl)cc2)CC1 | inconclusive: 29.1 µM [inhibitor, single point] | – |
| Cc1ccn2nc(S(=O)(=O)Nc3c(F)cccc3F)nc2n1 | inactive | – |
| Cc1ccc(-n2c(/C=C/c3cccc4ccccc34)nc3ccccc3c2=O)cc1 | inconclusive: 16.4 µM [inhibitor, single point] | – |
| CCC(c1nnnn1C1CCCCC1)N1CCC2(CC1)C(=O)NCN2c1ccccc1 (stereo not given) | inconclusive: 29.1 µM [inhibitor, single point] | – |
| Cc1ccc([C@H]2C[C@H](O)[C@@H](n3cc(COC(=O)c4ccccc4)nn3)CN2CC2CCCCC2)cc1 | inconclusive: 18.4 µM [inhibitor, single point] | – |
